From ChEMBL document CHEMBL4888484, “Replenishing the malaria drug discovery pipeline: Screening and hit evaluation of the MMV Hit Generation Library 1 (HGL1) against asexual blood stage Plasmodium falciparum ,using a nano luciferase reporter read-out” (2022)
The whole screen tested about 150,000 compounds, of which about 540 (0.36%) showed an effect of 50% or more. The list shows a part of the results.

The compounds below were run on Plasmodium falciparum (assay: Primary screen in NF54 nanoGlo assay, in single point, at 2uM, 72h; a lower Z score goes with more inhibition). Conditions: timepoint 72 hour.
Format: functional, Erythrocyte

Compound	% Inhibition	Z score
CCCN1C=NS(=O)(=O)c2cc(C(=O)Nc3ccc(C)c(Cl)c3)ccc21	-2%	0.32
CCn1c(-c2cc(NC(=O)c3ccc(OC)c(OC)c3)[nH]n2)cc2c(OC)cccc21	27%	-3.02
C[C@@](Cn1cccn1)(NC(=O)c1csc(Cl)c1)C(N)=O	8%	-0.99
COc1cccc(C(C)NCC2CCC(C(=O)N(C)C)O2)c1 (stereo not drawn)	-11%	1.63
Cc1noc(C)c1CNC(=O)N1CC(F)C1	0%	0
Cc1cc(=O)n(CC(=O)NCc2ccccc2Cl)c(N)n1	-17%	1.84
COc1ncc(NS(=O)(=O)Cc2ccc(C)cc2)c(OC)n1	-9%	1.83
CCOC(=O)C1CCN(C(=O)c2cc(-c3ccccc3OC)nc3cc(-c4ccccc4)nn23)CC1	-5%	0.87
CC(C)(C)c1ccc2oc(CNCC(=O)Nc3cnccn3)nc2c1	-8%	1.47
CCCOC[C@H]1CCN(C(=O)c2cc(=O)cc(C)[nH]2)C1	-11%	1.67
CC[C@@H](C(=O)NC(C)(C)C)N(C)Cc1cc[nH]n1	-6%	0.78
CN(CC1CCC1)C1(C(N)=O)CCCC1	-2%	0.3
C[C@@H]1CN(Cc2nnnn2CC(=O)NCc2cccnc2N)C[C@H](C)O1	-13%	1.17
Cc1nn(-c2nc(CC(=O)Nc3nccs3)cs2)c(C)c1Cc1cccc(F)c1	-19%	3.08
COc1ccccc1-c1nc(NCCc2ccccn2)nc2nn(-c3ccc(Cl)cc3)c(N)c12	-7%	1.37
COc1nccc(N(C)C)c1NC(=O)[C@H](C)c1ccsc1	2%	-0.21
Cc1noc(C2CN(S(=O)(=O)c3cccc(F)c3)C2)n1	-14%	2.6
O=c1cc(CN2CCC[C@H](CN3CCOCC3)C2)nc2ccc(Cl)cn12	-5%	0.61
CC(=O)N1C[C@H](C)Oc2ccc(S(=O)(=O)N3CCN(Cc4ccccc4)CC3)cc21	-16%	1.52
COCCN(CCC#N)C(=O)Nc1cccnc1	-6%	0.8
O=C(Nc1ccc(S(=O)(=O)N2CCCC2)cc1)N1CCCCC1	-4%	0.85

Compound	% Inhibition	Z score
Cc1ccc(-c2cc(-c3nc(C4CC4)nn3C3CCN(C)CC3)[nH]n2)s1	22%	-2.85
CCn1ncnc1[C@H](C)NC(=O)CCC(=O)Nc1c(C)cc(C)cc1C	-8%	1.26
COc1ccc(F)c(CN(C)[C@H](c2ccccn2)C2CC2)c1F	-15%	1.97
Cc1cc(C(=O)N2CCCCC3CCCCC32)no1 (stereo not drawn)	0%	-0.07
O=C(C[C@@]1(C(=O)O)CC(c2ccc(F)cc2)=NO1)Nc1ccccc1Cl	-32%	3.75
C=CCC[C@H](O)CN(Cc1ccccc1)Cc1c(-c2ccccc2)nn(C)c1Oc1ccc(C)cc1	5%	-0.81
Cc1ccc(C2=NN(c3nc(-c4ccc(Cl)cc4)cs3)[C@@](O)(C(F)(F)F)C2)cc1	-36%	4.24
O=S(=O)(Nc1cncc(Br)c1O)c1ccc(F)c2ncccc12	7%	-0.71
CCS(=O)(=O)c1ccccc1NCc1nnc(C(C)C)n1C	-13%	1.43
CCc1nnc(-c2c(C)c(S(=O)(=O)NCc3cccc(F)c3)c(C)n2CC)o1	-1%	0.13
Cn1cc(CCC(=O)N2CCc3c(F)ccc(F)c32)cn1	-3%	0.38
Cc1ccc(N2CC[C@@H](C(=O)NCCCN3CCOCC3)C2=O)cc1F	-3%	0.37
O=C(Nc1ccc(Cl)cc1-n1cccn1)N1CCC2CCC(C1)S2(=O)=O (stereo not drawn)	1%	-0.28
C#CCN(C1CCCC1)S(=O)(=O)C[C@H](C)OC	-4%	0.41
Clc1ccc2nc3c(nc2c1)Oc1ccccc1O3	1%	-0.22
CN(Cc1nc(-c2ccsc2)no1)C1CC2CCC(C1)N2C(=O)OC(C)(C)C (stereo not drawn)	-4%	0.6
COc1ccc(C(=O)N/C(=N/c2ccc(F)cc2)N2CCN(C3CCCCC3)CC2)cc1	4%	-0.82
CC1CCN(CC(=O)N[C@](C)(C#N)C(C)C)CC1	-12%	1.24
Cc1ncc(CNC(=O)c2ccc(OC(C)C)cc2Cl)c(O)n1	-8%	1.2
Cc1nc(-c2ccc(Cl)c(S(=O)(=O)N3CCC(C(=O)N4CCc5ccccc54)CC3)c2)no1	4%	-0.53
CN(C)S(=O)(=O)c1cccc(Cl)c1Cl	-7%	1

Compound	% Inhibition	Z score
O=C(c1cn(Cc2cccs2)nn1)N1CCc2c(Cl)cccc2C1	0%	-0.01
Cn1c(C(=O)N2CC[S+]([O-])CC2)cc2cc(C(F)(F)F)ccc21	-6%	0.75
Nc1ccsc1C(=O)NCCc1cc(N2CCCC2)ncn1	-10%	1.28
CC(C)CN(C(=O)Cn1cnc(C(C)(C)C)n1)C1CC1	-8%	0.92
CCCC[C@@H](c1cccnc1)N(C)C(=O)c1ccn(CC)n1	-9%	0.9
CC1(C(N)=O)CN(C(=O)Cc2ccc3c(c2)OCO3)C1	-7%	1.05
CNC(=O)C1CCCCC1NC1CCCC(N2C(=O)c3ccccc3C2=O)C1 (stereo not drawn)	6%	-0.53
CN1CCCN(CC(=O)N2CCO[C@H](c3ccccc3)C2)CC1	-18%	2.31
O=C(CCc1cccc(Cl)c1)N1CC(n2ccnn2)C1	-6%	0.65
CC1CCN(S(=O)(=O)N(C)C2CCOCC2)C2CCCCC12 (stereo not drawn)	-4%	0.42
CCn1cc(C(=O)NC2(c3ccccc3F)COC2)c(C2CC2)n1	-4%	0.71
CCN(CCC#N)C(=O)c1sc(C)nc1CC(C)C	-10%	1.31
COCCNC(=O)[C@@H](NC(=O)c1cccc(OC)c1)C1CCN(C(=O)c2cccc(F)c2)CC1	-8%	1.14
CC(C)CCN1C(=O)CN(S(=O)(=O)c2ccccc2)C[C@@]1(C)C(=O)NCc1ccc(F)cc1	-12%	1.6
CC(C)(C)OC(=O)N1CCC2(CC(O)c3ccc(OCCc4ccccc4)cc3O2)C1 (stereo not drawn)	-6%	0.79
CC[C@H]1COCCN1C(=O)NCCCCn1ccnc1C	-11%	1.68
c1cc(N[C@H]2CCCc3cn[nH]c32)nc(C2CC2)n1	-7%	0.67
Cn1c(C(F)(F)F)nn(C2CCN(C(=O)NCCOc3ccccc3)CC2)c1=O	-6%	0.89
Cc1ccccc1NC(=O)N1CCN(C2=Nc3ccccc3Oc3ccccc32)CC1	4%	-0.48
CN(C(=O)C1CC2CCCC(C1)C2=O)C1CCCCCC1 (stereo not drawn)	-5%	0.67
CO[C@@](C)(C(=O)N1CC(N2CCN(C)CC2)C1)c1ccccc1F	14%	-1.78

Compound	% Inhibition	Z score
O=C(c1[nH]nc2c1CCC2)N1CC=C(c2ccccc2)CC1	3%	-0.43
N#Cc1ccc(OCC(N)=O)c(Cl)c1	-3%	0.51
C[C@H](NC(=O)COc1ccc(F)c(C(F)(F)F)c1)C(=O)N(C)C	-9%	0.97
COc1ccc([C@H](C#N)c2nc3ccccc3nc2N2CCN(c3ccc(F)cc3)CC2)cc1	-13%	1.35
CCCc1nnc(NC(=O)NC(C)[C@@H]2C[C@H](C(=O)O)C2(C)C)s1 (stereo partly drawn)	4%	-0.53
Cc1ccccc1NC(=O)Nc1ccc(-n2nc(OCC(C)C)nc2-c2ccc3c(c2)OCO3)cc1	-10%	0.89
Cc1cnc(N2CCCn3nc(CNC(=O)N(C)C)cc3C2)nc1N(C)C	2%	-0.44
COC[C@](C)(NC(=O)CN(C)C)c1ccccc1	-11%	1.45
O=C(Cc1csc(N2CCCNC2=O)n1)NC1CCCC1OCc1ccccc1 (stereo not drawn)	-15%	2.31
CN(CC1CCCCC1)C(=O)[C@@H]1COC(=O)N1	-5%	0.61
CC(C)[C@H]1CN(Cc2c[nH]nc2-c2ccc(Cl)cc2)C[C@@H]1N(C)C	-5%	0.81
CC(C)c1cc([C@@H]2CCCN2Cc2cccc(F)c2)no1	-10%	1.4
COc1ccc(C(=O)Nc2ccc(CCc3nc4ccccc4[nH]3)cc2)c(OC)c1	10%	-1.01
Cc1cccnc1C[C@H](C)n1cnc2c(C)cccc2c1=O	6%	-1.08
COc1cccc(NC(=O)CN2CCC3(CC2)NC(c2ccc(OC(F)(F)F)cc2)=NO3)c1	-9%	1.27
COc1cc(C)ccc1CN1CCCNC(=O)C1	-16%	2.07
c1ccc2c[n+](Cc3ccc4ccccc4n3)ccc2c1	59%	-7.39
CCOc1cccc2c1N(C(=O)COc1ccccc1)C(C)(C)c1ssc(=S)c1-2	-2%	0.29
CN(C)CCc1ccc(NC(=O)c2cc(F)c(F)c(O)c2F)cc1	-5%	0.92
CO[C@@]12CC[C@@H](NC(=O)C3CCC3)C[C@@H]1N(C(=O)c1cnc(N)nc1C)CC2	-1%	0.13
CCn1ncnc1[C@@H](NC(=O)Cn1nc(C)cc1N)C1CC1	-16%	3.15
